In all, about 81,000 sequences were measured (“one-hybrid fitness for binding parS DNA”: median about -0.17, highest 2% from about 0.51 on). Some of the results follow.
B1: Caulobacter ParB omega fusion; a variant is named by its letters at X, in order, B8GW30 (parent)
chain: MESVVVGEPGMSEGRRGLGRGLSALLGEVDAAPAQAPGEQLGGSREAPIEILQRNPDQPRRTFREEDLEDLSNSIREKGVLQPILVRPSPDTAGEYQIVAGERAWRAAQRAGLKTVPIMVRELDDLAVLEIGIIENVQRADLNVLEEALSYKVLMEKFERTQENIAQTIGKSXSHVANXMRLLXLPDEVQSYLVSGELTAXHARAIAAAADPVALAKQIIEGGLSVRETEALARKAPNLSAGKSKGGRPPRVKDTDTQALESDLSSVLGLDVSIDHRGSTGTLTITYATLEQLDDLCNRLTRGI

Variants of: B1
Test: one-hybrid fitness for binding parS DNA (scaled: cognate 1, non-cognate 0); higher = stronger binding
Conditions: with parS DNA site
Summary of the method: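 Values were rescaled so that cognate is 1 and non-cognate is 0. Each is a fitness, the log change in a variant's read ratio to wild type from Illumina reads of plasmids before and after selection, with three replicate libraries pooled and variants under 10 reads dropped. Selection of the Caulobacter ParB libraries, four specificity codons randomised, used E. coli USO with a HIS3 reporter, site 19 bp from the promoter, on M9-minus-histidine with 0.1 mM IPTG and 5 mM 3-AT for 48 hours at 37°C.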

| Variant | one-hybrid fitness for binding parS DNA |
| --- | --- |
| SEHI | ≤ 0.2 |
| CHDS | ≤ 0.2 |
| QMQW | ≤ 0.2 |
| YNNT | ≤ 0.2 |
| LQQR | ≤ 0.2 |
| PDHL | ≤ 0.2 |
| ASSL | ≤ 0.2 |
| HNFR | ≤ 0.2 |
| VASP | ≤ 0.2 |
| REQE | ≤ 0.2 |
| SGSQ | ≤ 0.2 |
| YFST | 0.481 |
| SLGS | ≤ 0.2 |
| GQSW | ≤ 0.2 |
| RGMA | 0.283 |
| SSKM | ≤ 0.2 |
| SPPE | ≤ 0.2 |
| EFSC | ≤ 0.2 |
| HEEL | ≤ 0.2 |
| GHPE | ≤ 0.2 |
| LNRF | ≤ 0.2 |
| YRYE | ≤ 0.2 |
| DTQL | ≤ 0.2 |
| VLSR | ≤ 0.2 |

| Variant | one-hybrid fitness for binding parS DNA |
| --- | --- |
| VRGT | ≤ 0.2 |
| GIKR | ≤ 0.2 |
| DAIP | ≤ 0.2 |
| SKYN | ≤ 0.2 |
| RQHE | ≤ 0.2 |
| GANV | ≤ 0.2 |
| RMGC | 0.952 |
| NYCK | ≤ 0.2 |
| QRGK | ≤ 0.2 |
| FVNN | ≤ 0.2 |
| AEVY | ≤ 0.2 |
| TMIG | ≤ 0.2 |
| IIGS | ≤ 0.2 |
| EKIS | ≤ 0.2 |
| GATS | ≤ 0.2 |
| TVNK | ≤ 0.2 |
| RGGR | ≤ 0.2 |
| FHKT | ≤ 0.2 |
| VLGT | ≤ 0.2 |
| RCCI | ≤ 0.2 |
| NPPA | ≤ 0.2 |
| NTLR | ≤ 0.2 |
| HTWV | ≤ 0.2 |
| PRVT | ≤ 0.2 |

| Variant | one-hybrid fitness for binding parS DNA |
| --- | --- |
| AIDT | ≤ 0.2 |
| FTRV | ≤ 0.2 |
| FHKV | ≤ 0.2 |
| QMMK | ≤ 0.2 |
| CYGL | ≤ 0.2 |
| TMDL | ≤ 0.2 |
| NKKY | ≤ 0.2 |
| VDTA | ≤ 0.2 |
| QEPV | ≤ 0.2 |
| HASM | ≤ 0.2 |
| RWIE | ≤ 0.2 |
| AGWE | ≤ 0.2 |
| SWCF | ≤ 0.2 |
| AILG | ≤ 0.2 |
| AIQL | ≤ 0.2 |
| YSTK | ≤ 0.2 |
| RADK | ≤ 0.2 |
| RGCM | ≤ 0.2 |
| CDVT | ≤ 0.2 |
| TWDV | ≤ 0.2 |
| INQR | ≤ 0.2 |
| EAVR | ≤ 0.2 |
| RGAN | ≤ 0.2 |
| CDFR | ≤ 0.2 |

| Variant | one-hybrid fitness for binding parS DNA |
| --- | --- |
| PDVL | ≤ 0.2 |
| GQQN | ≤ 0.2 |
| SAVL | ≤ 0.2 |
| AVNS | ≤ 0.2 |
| RNTI | ≤ 0.2 |
| WFLT | ≤ 0.2 |
| TEIT | ≤ 0.2 |
| VDPH | ≤ 0.2 |
| VQET | ≤ 0.2 |
| MYAM | ≤ 0.2 |
| LSNP | ≤ 0.2 |
| VWET | ≤ 0.2 |
| YMVG | ≤ 0.2 |
| RRCN | 0.452 |
| GLNR | ≤ 0.2 |
| AFDR | ≤ 0.2 |
| SVER | ≤ 0.2 |
| GEAA | ≤ 0.2 |
| HRVC | ≤ 0.2 |
| RVSN | 0.426 |
| YNLL | ≤ 0.2 |
| FCAH | ≤ 0.2 |
| HSAF | ≤ 0.2 |
| VWAC | ≤ 0.2 |

| Variant | one-hybrid fitness for binding parS DNA |
| --- | --- |
| YARL | ≤ 0.2 |
| FYGT | ≤ 0.2 |
| KMHS | ≤ 0.2 |
| DKML | ≤ 0.2 |
| TLGS | ≤ 0.2 |
| PDNC | ≤ 0.2 |
| PPVA | ≤ 0.2 |
| YFWL | ≤ 0.2 |
| IIGK | ≤ 0.2 |
| KHLD | ≤ 0.2 |
| THTW | ≤ 0.2 |
| GWIC | ≤ 0.2 |
| WRPS | ≤ 0.2 |
| WPSG | ≤ 0.2 |
| NFSN | ≤ 0.2 |
| LRPK | ≤ 0.2 |
| QRDD | ≤ 0.2 |
| TFNT | ≤ 0.2 |
| RLSS | 0.991 |
| GASF | ≤ 0.2 |
| YLHS | ≤ 0.2 |
| WEQG | ≤ 0.2 |
| KPWQ | 0.298 |
| CRHV | ≤ 0.2 |

| Variant | one-hybrid fitness for binding parS DNA |
| --- | --- |
| LDYW | ≤ 0.2 |
| YMTF | ≤ 0.2 |
| WIRM | ≤ 0.2 |
| RREL | ≤ 0.2 |
| HCSV | ≤ 0.2 |
| QTMM | ≤ 0.2 |
| KIES | ≤ 0.2 |
| DIRY | ≤ 0.2 |
| EGQV | ≤ 0.2 |
| FKTR | ≤ 0.2 |
| NSWF | ≤ 0.2 |
| WVPM | ≤ 0.2 |
| DDVG | ≤ 0.2 |
| MARW | ≤ 0.2 |
| MTRW | ≤ 0.2 |
| RTSK | ≤ 0.2 |
| DMVA | ≤ 0.2 |
| FGQY | ≤ 0.2 |
| MFKC | ≤ 0.2 |
| VFLR | ≤ 0.2 |
| AVQC | ≤ 0.2 |
| PLDT | ≤ 0.2 |
| NCVK | ≤ 0.2 |
| HQSC | ≤ 0.2 |

| Variant | one-hybrid fitness for binding parS DNA |
| --- | --- |
| DAGL | ≤ 0.2 |
| YLQL | ≤ 0.2 |
| HHWI | ≤ 0.2 |
| SVHR | ≤ 0.2 |
| NSDM | ≤ 0.2 |
| WPRT | ≤ 0.2 |
| EWHT | ≤ 0.2 |
| TWRS | ≤ 0.2 |
| MYPR | ≤ 0.2 |
| EQQR | ≤ 0.2 |
| MLNL | ≤ 0.2 |
| QHVS | ≤ 0.2 |
| GHWR | ≤ 0.2 |
| WSTM | ≤ 0.2 |
| ILFG | ≤ 0.2 |
| GSSA | ≤ 0.2 |
| SGTH | ≤ 0.2 |
| TLGH | ≤ 0.2 |
| PLIR | ≤ 0.2 |
| NDPQ | ≤ 0.2 |
| LGRY | ≤ 0.2 |
| IFQI | ≤ 0.2 |
| CEMF | ≤ 0.2 |
| LVWR | ≤ 0.2 |

| Variant | one-hybrid fitness for binding parS DNA |
| --- | --- |
| STWS | ≤ 0.2 |
| MCYV | ≤ 0.2 |
| EDVR | ≤ 0.2 |
| RVQF | 0.234 |
| LHPM | ≤ 0.2 |
| PQPA | ≤ 0.2 |
| LGNN | ≤ 0.2 |
| EAIT | ≤ 0.2 |
| CNRL | ≤ 0.2 |
| CTLL | ≤ 0.2 |
| DVCS | ≤ 0.2 |
| LCVG | ≤ 0.2 |
| EQCG | ≤ 0.2 |
| HVTA | ≤ 0.2 |
| PGSE | ≤ 0.2 |
| QSPN | ≤ 0.2 |
| HKPF | ≤ 0.2 |
| VCYT | ≤ 0.2 |
| HKHQ | ≤ 0.2 |
| TERL | ≤ 0.2 |
| QQAP | ≤ 0.2 |
| GLFS | ≤ 0.2 |
| IWLT | ≤ 0.2 |
| KYAV | ≤ 0.2 |

| Variant | one-hybrid fitness for binding parS DNA |
| --- | --- |
| SRLQ | ≤ 0.2 |
| AHHI | ≤ 0.2 |
| RNEN | ≤ 0.2 |
| TVWS | ≤ 0.2 |
| ISFS | ≤ 0.2 |
| KSRV | ≤ 0.2 |
| IHFS | ≤ 0.2 |
| VFTF | ≤ 0.2 |
| QVPH | ≤ 0.2 |
| ELFW | ≤ 0.2 |
| ETTL | ≤ 0.2 |
| SYMG | ≤ 0.2 |
| KWHY | ≤ 0.2 |
| QAFR | ≤ 0.2 |
| TKCW | ≤ 0.2 |
| YNVR | ≤ 0.2 |
| AVQT | ≤ 0.2 |
| HCSF | ≤ 0.2 |
| AFGR | ≤ 0.2 |
| AQYS | ≤ 0.2 |
| NNDN | ≤ 0.2 |
| STHS | ≤ 0.2 |
| AEKE | ≤ 0.2 |
| NRLC | ≤ 0.2 |

| Variant | one-hybrid fitness for binding parS DNA |
| --- | --- |
| CLRT | ≤ 0.2 |
| KRTF | ≤ 0.2 |
| QSVQ | ≤ 0.2 |
| RCAG | 1.02 |
| TSES | ≤ 0.2 |
| QCMP | ≤ 0.2 |
| EMSC | ≤ 0.2 |
| RMCS | 1.01 |
| QWVK | ≤ 0.2 |
| SMKY | ≤ 0.2 |
| NTPN | ≤ 0.2 |
| QRGR | ≤ 0.2 |
| RNNL | ≤ 0.2 |
| PRDM | ≤ 0.2 |
| PYDS | ≤ 0.2 |
| IFMR | ≤ 0.2 |
| PMLQ | ≤ 0.2 |
| GIMV | ≤ 0.2 |
| CKTD | ≤ 0.2 |
| IKLR | ≤ 0.2 |
| WVGW | ≤ 0.2 |
| FYNR | ≤ 0.2 |
| LAGK | ≤ 0.2 |
| IGED | ≤ 0.2 |

| Variant | one-hybrid fitness for binding parS DNA |
| --- | --- |
| MVLL | ≤ 0.2 |
| LHYG | ≤ 0.2 |
| TPMK | ≤ 0.2 |
| PMKS | ≤ 0.2 |
| PKPP | ≤ 0.2 |
| ALRM | ≤ 0.2 |
| GSKS | ≤ 0.2 |
| WSCF | ≤ 0.2 |
| TMCT | ≤ 0.2 |
| YNCC | ≤ 0.2 |
| GEYG | ≤ 0.2 |
| AGNC | ≤ 0.2 |
| FEPC | ≤ 0.2 |
| TMHR | ≤ 0.2 |
| NTAM | ≤ 0.2 |
| QMHV | ≤ 0.2 |
| RVSM | 0.347 |
| HCSG | ≤ 0.2 |
| RMWN | 0.43 |
| PLKM | ≤ 0.2 |
| KGCV | ≤ 0.2 |
| AQTF | ≤ 0.2 |
| LKQE | ≤ 0.2 |
| DVSD | ≤ 0.2 |

| Variant | one-hybrid fitness for binding parS DNA |
| --- | --- |
| YYWG | ≤ 0.2 |
| RVLY | 0.508 |
| SEIR | ≤ 0.2 |
| VMLS | ≤ 0.2 |
| LSPR | ≤ 0.2 |
| MFPC | ≤ 0.2 |
| SLID | ≤ 0.2 |
| YVDG | 0.221 |
| MTDC | ≤ 0.2 |
| GPTC | ≤ 0.2 |
| DVMK | ≤ 0.2 |
| DTHW | ≤ 0.2 |
| GAVA | ≤ 0.2 |
| RAFT | 0.847 |
| FNVL | ≤ 0.2 |
| PNAT | ≤ 0.2 |
| RDVW | ≤ 0.2 |
| QWQG | ≤ 0.2 |
| VTHL | ≤ 0.2 |
| VDQP | ≤ 0.2 |
| HEPR | ≤ 0.2 |
| SREW | ≤ 0.2 |
| IPLT | ≤ 0.2 |
| KTGN | ≤ 0.2 |

| Variant | one-hybrid fitness for binding parS DNA |
| --- | --- |
| YARC | ≤ 0.2 |
| SLNF | ≤ 0.2 |
| GYPI | ≤ 0.2 |
| TCAV | ≤ 0.2 |
| VQDA | ≤ 0.2 |
| VNVN | ≤ 0.2 |
| VKSS | ≤ 0.2 |
| LQER | ≤ 0.2 |
| KSNT | ≤ 0.2 |
| WTLS | ≤ 0.2 |
| QLMK | ≤ 0.2 |
| TDIS | ≤ 0.2 |
| KTFN | ≤ 0.2 |
| PTNT | ≤ 0.2 |
| EWKF | ≤ 0.2 |
| CYNR | ≤ 0.2 |
| CTYG | ≤ 0.2 |
| TAAW | ≤ 0.2 |
